In all, about 46,000 compounds went through this assay and about 60 (0.1%) were called active. About 3% were inconclusive and are not listed. Calls come from the whole dose curve; as a rule, active = well fitted inhibition curve with a large enough effect; inconclusive = small, poorly fitted or top-dose-only effect; inactive = no such curve, though single readings can be large or run the other way. Some of the results follow.
Assay: Primary qHTS assay for Inhibitors of ovarian cancer metastasis using an organotypic tumor microenvironment (TME) model.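 For activity change, negative = inhibition: plate controls were DMSO wells for no effect and tomatine positive control wells for full effect.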 Note: nearly all actives have a fitted effect of over 65% in size.
Conditions: SKOV3ip1-GFP adhesion/invasion on 3D omental model, fluorescence; series mostly up to 45.8 µM; activity change, negative = inhibition: at the top concentration
Outline: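 A 3D layer of primary human omental fibroblasts, mesothelial cells, fibronectin and collagen I, grown 48 hr, received SKOV3ip1-GFP cells in serum-free medium plus compounds at 0.36-46 umol/L. After 2 hr RT and 16 hr 37 C, fixed adherent GFP cells were counted; normalized to DMSO and tomatine.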

Activity change, negative = inhibition, inactive:
COc1ccc(NC(=O)CSc2ncc3c(n2)-c2cc(Cl)ccc2N(Cc2ccccc2F)S3(=O)=O)cc1 166%
COC(=O)c1cc(S(=O)(=O)NCC2CCN(Cc3ccc(F)cc3)CC2)cn1C 5.9%
CCOC(=O)c1c(NC(=O)CSc2cn(CCNC(=O)c3ccccc3F)c3ccccc23)sc2c1CCC2 17.9%
COc1cc(-c2nnc(SCCOc3ccc(Cl)cc3C)o2)cc(OC)c1OC 3.01%
Fc1ccc(-n2ncc3c(NCCCN4CCOCC4)ncnc32)cc1 1.91%
COc1cc(NC(=O)CCc2c(C)nn(-c3ccc4nncn4n3)c2C)cc(OC)c1OC -0.445%
Cc1ccc(Cl)cc1N1CCN(S(=O)(=O)c2ccc3[nH]c4c(c3c2)CCCCC4)CC1 -13.7%
CC=C1C2C=C(C)CC1(N)c1ccc(=O)[nH]c1C2 (centres undefined) 6.34%
COc1cccc(CNC(=O)c2ccc(CSc3nc4ccncc4n3Cc3cccc(C)c3)cc2)c1 5.76%
CC(C)COC(=O)/C(C#N)=C\c1ccc(-c2ccccc2Cl)o1 1.39%
COc1ccc(NC(=O)CSc2cn(CC(=O)N3CCOCC3)c3ccccc23)cc1OC 1.52%
O=C(Nc1ccccc1)C(Cc1ccccc1)N1Cc2ccccc2C1=O (centres undefined) 20.4%
Cc1ccc(C)c(NC(=O)CCN2C(=O)c3ccccc3Sc3ncccc32)c1 -25.6%
O=C(CSc1ncc(S(=O)(=O)c2ccc(Br)cc2)c(=O)[nH]1)NCc1ccc(Cl)cc1 7.42%
Cc1ccc(Cl)c2c1N[C@@H](c1ccc(C(=O)O)cc1)[C@H]1CC=C[C@@H]21 -11.1%
COc1ccc(-c2cc(C(=O)NCc3cc(OC)c(OC)c(OC)c3)[nH]n2)cc1 -11.7%
CCc1ccc(S(=O)(=O)c2nnn3c2nc(N2CCC(C)CC2)c2cc(Cl)ccc23)cc1 -0.396%
Cc1cccc(OCC(=O)Nc2c(C)ccc3nsnc23)c1C -16.9%
COc1cccc(N2CCN(S(=O)(=O)c3cc(Br)cc4c3N(C(=O)C3CC3)CC4)CC2)c1 8.31%
COc1ccc(C2=NS(=O)(=O)N(C)C(C(=O)Nc3cc(C)ccc3O)=C2)cc1OC 9.65%
CCOC(=O)c1c(C)n(-c2ccccc2)c2ccc(OC(=O)c3ccccc3)cc12 -2.22%
Cc1ccc(C)c(CSc2nc3ncccc3[nH]2)c1 -0.131%
CN1CCN(C(CNC(=O)C(=O)Nc2ccccc2)c2ccc3c(c2)OCO3)CC1 (centres undefined) 0.643%
COc1ccccc1N1CCN(c2cc(C)nc3nncn23)CC1 1.93%
CCOc1ccc(CNC(=O)CSc2c3c(nc4ccc(Cl)cc24)CCCC3)cc1 3.87%
COc1ccc(C)c2sc(N3CCN(C(=O)c4ccco4)CC3)nc12 4.59%
CC(C)c1cc(-c2nc(-c3cccc(Cl)c3)no2)n[nH]1 -21.8%
Cc1ccc(CNC(=O)Cn2c3ncccc3c(=O)n2-c2ccc(C)cc2)cc1 -5.77%
Cc1ccc2oc(C(=O)Nc3sc4c(c3C(=O)NCc3ccco3)CCC4)cc(=O)c2c1 -8.81%
Cc1nc2c(c(C)nn2C(C)(C)C)c(C)c1CCC(=O)Nc1ccc(F)cc1 -2.15%
Cc1nn2c(=O)cc(COC(=O)c3ccc(NC(=O)COc4ccccc4F)cc3)nc2s1 -5.45%
C=C(C)[C@@H]1CC[C@]2(C(=O)O)CC[C@]3(C)[C@H](CC[C@@H]4[C@@]5(C)CC[C@H](O)C(C)(C)[C@@H]5CC[C@]43C)[C@@H]12 -8.34%
CC(=O)c1ccc(N2CCN(C(=O)CCCn3c(=O)[nH]c4ccsc4c3=O)CC2)cc1 11.4%
Cc1ccc(Cn2c(CN3CCN(c4cccc(Cl)c4)CC3)nc3c2c(=O)n(C)c(=O)n3C)cc1 -2.68%
Cc1nn(CC(=O)NCc2ccc(N(C)C)cc2)c(=O)c2nn(-c3ccccc3)c(C)c12 -5.23%
COCCCNC(=O)c1ccc(Cn2c(=O)c3cccn3c3cccnc32)cc1 -7.46%
CCC(=C(CC)c1ccc(O)cc1)c1ccc(O)cc1 -16.9%
COc1ccccc1CNC(=O)C1CCN(c2nnc(C)c3c(C)n(-c4ccccc4)nc23)CC1 -2.54%
CC(C)CC(=O)OCc1cc(=O)n2nc(C3CCCCC3)sc2n1 0.671%
COc1ccc(NC(=O)CC(C)S(=O)(=O)c2cc3c(cc2C)NC(=O)CO3)cc1OC (centres undefined) -7.19%
O=C(Nc1nnc(S(=O)(=O)N2CCCCCC2)s1)c1ccc(Cl)cc1 7.31%
CSc1nn(CC(=O)Nc2cc(C)ccc2C)c(N)c1S(=O)(=O)c1ccccc1 1.91%
Cc1ccc2c(=O)cc(C(=O)Nc3c(C(=O)c4ccc(F)cc4)oc4ccccc34)oc2c1C -7.17%
NC(N)=Nc1nc(CSCCC(N)=NS(N)(=O)=O)cs1 12.5%
COc1ccc(CCNC(=O)c2c(C)oc3ncn(CC(C)C)c(=O)c23)c(OC)c1 2.54%
Cc1cccc(C)c1OC(=O)CSc1nnc(-c2ccc3c(c2)OCO3)o1 -5.87%
CCC(CC)C(=O)Nc1cc(-c2nc3cccnc3s2)ccc1C -2.82%
CCOC(=O)Cn1c(=O)oc2cc(S(=O)(=O)N3CCN(c4ccc(F)cc4)CC3)ccc21 12.1%
Cc1ccc(NC(=O)CN2C(=O)CC(c3ccc(C)c(C)c3)=Nc3ccccc32)cc1 12.7%
Cc1ccc(C(C)C)c(OCC(=O)Nc2ccc(O)c(-c3nc4cc(Cl)ccc4o3)c2)c1 5.61%
CCCOc1cccc(C(=O)Nc2cccc(NC(=O)c3ccc(Cl)cc3Cl)c2)c1 -6.78%
CC(C)C(=O)Nc1nnc(S(=O)(=O)N2c3ccccc3CC2C)s1 (centres undefined) 3.72%
CCSc1nc2ccccc2c(OCc2cc(C(=O)OC)ccc2OC)c1C(=O)OC -11.4%
COC(=O)c1c(C)sc(-c2c(-c3ccc(OC)c(F)c3)[nH]c3c2c(=O)n(C)c(=O)n3C)c1O -9.24%
CCS(=O)(=O)Nc1ccc(-c2cn3c(C)csc3n2)cc1 -2.82%
COc1ccc(C(=O)Oc2cc(-c3ccc(OC)c(OC)c3)cc(=O)c3c(C)oc(C)c23)cc1 -2.72%
COc1ccc(CNC(=O)CN(C)S(=O)(=O)c2ccc3c(c2)c(=O)n(C)c(=O)n3C)cc1 4.31%
COc1cccc(C(c2sc3nc(-c4ccco4)nn3c2O)N2CCN(C)CC2)c1 (centres undefined) 8.72%
O=C(Cn1cc(C(=O)c2cccs2)c2ccccc21)Nc1ccc(Br)cc1 -10.1%
CCN(c1cccc(C)c1)S(=O)(=O)c1c(C)nc2sc(C)cn2c1=O 1.73%
CCN1C(=O)c2ccccc2S(=O)c2ccc(C(=O)NCc3ccc(Cl)cc3)cc21 (centres undefined) -21.9%
O=C1CCSC2(C(=O)N(Cc3ccc(F)cc3)c3ccccc32)N1c1cccc(F)c1 (centres undefined) -19.4%
CCOC(=O)c1c(-c2ccccc2)oc2ccc(OCc3cccc(Br)c3)cc12 -3.13%
CCCNC(=O)c1c(NC(=O)c2ccccc2)sc2c1CCC(C(C)(C)C)C2 (centres undefined) -14.8%
Cc1ccc(CSc2nc3ccncc3n2Cc2nc(-c3ccccc3C)oc2C)cc1 44.3%
Cc1cccc(N2C(=O)N(Cc3cccc(C#N)c3)c3ccccc3S2(=O)=O)c1 -8.48%
O=C(Cn1c(=O)n(Cc2ccc(C(=O)NCc3ccc4c(c3)OCO4)cc2)c(=O)c2ccccc21)Nc1ccccc1F 60.4%
O=C(CCS(=O)(=O)c1cc(Br)cc2c1N(C(=O)C1CC1)CC2)N1CCN(c2cccc(C(F)(F)F)c2)CC1 -26.9%
COc1ccc(CNC(=O)c2cccn2-c2nnc(N3CCCCC3)s2)c(OC)c1 54%
CC(C)c1ccccc1NC(=O)Cn1cnc2c1c(=O)n(C)c(=O)n2C 2.77%
COc1ccc2c(c1)c1c(c(=O)n(-c3cccc(C)c3)c(=O)n1CC(=O)NCc1ccc(C)cc1)n2C 4.75%
CC(C)(C)c1ccc(C(=O)NC(Cc2c[nH]c3ccccc23)C(=O)OCC(=O)c2ccc(Br)cc2)cc1 (centres undefined) 25.8%
COc1ccc(CNC(=O)c2sc3nc4n(c(=O)c3c2C)CCC4)cc1 17.2%
CCCc1nnc(NC(=O)C(CC)Sc2nnc3c4ccccc4n(C)c3n2)s1 (centres undefined) 2.77%
CC(C)N(Cc1nc(-c2ccc(Cl)cc2)no1)C(=O)c1ccco1 11.7%
COC(=O)c1cc(C)nc2c1c(=O)nc(SCc1ccccc1Cl)n2C1CC1 7.65%
Cc1ccc(OCC(=O)Nc2ccc3nn(-c4ccc(C)cc4)nc3c2)cc1 7.32%
Nc1ncnc2c1ncn2[C@@H]1O[C@H](CO)C[C@@H]1O 8.59%
COc1ccccc1N1CCN(C(=O)CNS(=O)(=O)c2ccc(Br)s2)CC1 -0.828%
CCOC(=O)N1CCC2(CC1)OC(=O)C(C)=C2C(=O)NCc1ccccc1OC 0.57%

outcome, inactive:
O=C(Nc1ccc2nc(SCC(=O)N3CCCc4ccccc43)sc2c1)c1cccc(F)c1
Cc1ccc2c(c1)N(CCC(=O)NCc1ccc(F)cc1)C(=O)CO2
COc1cccc(N2CCN(C(=O)c3ccc4c(=O)n(CCc5ccccc5)c(=O)[nH]c4c3)CC2)c1
Cc1c(CC(=O)NCCc2ccccc2F)c(=O)oc2c(C)c3occ(C(C)(C)C)c3cc12
Cc1nc(N2C(=O)c3oc4ccccc4c(=O)c3C2c2ccccc2F)sc1C (centres undefined)
Cc1cccc(-c2noc(CN(C(=O)COc3ccc(C(C)C)cc3)C(C)C)n2)c1
Cc1cccc(N2C(=O)CSC23C(=O)N(Cc2cccc(F)c2)c2ccccc23)c1 (centres undefined)
Cn1c(C(=O)NCc2cccc(Cl)c2)cc2oc3ccccc3c21
O=[N+]([O-])c1ccc(O)c(-c2ccnc3cc(-c4ccccc4)nn23)c1
COc1ccc(Nc2c(-c3ccsc3)nc3nc(C)cc(C)n23)cc1
COc1ccc(CCNC(=O)CS(=O)(=O)Cc2nc(-c3cccc(Cl)c3)oc2C)cc1OC
COc1ccc(-c2cc(C(=O)NCCc3ccccc3)c3c(-c4ccc(Cl)cc4)[nH]nc3n2)cc1
COc1ccc(-n2ccn(CC(=O)Nc3ccc(C)cc3C)c(=O)c2=O)cc1
CCc1cccc(NS(=O)(=O)c2ccc3c(c2)N(CC(=O)OC)C(=O)CS3)c1

— PubChem BioAssay AID1963576 (National Center for Advancing Translational Sciences (NCATS), 2024)
